Reference: US20100162418A1 (Kyowa Kirin, published 2010)

What was measured:
[1] = target: T1, recombinant human activated protein C preparation Xigris (manufactured by Eli Lilly) (human, UniProt P04070 43-197; P04070 212-461); assay: SPR (Biacore), activated protein C immobilised on CM5, RAGE-Fc as analyte
T1 construct: Bought preparation; also called APC
From the text: (§1) Next, using an amine coupling kit (manufactured by Biacore), human plasma-derived Protein S (manufactured by Calbiochem), recombinant human activated protein C preparation Xigris (manufactured by Eli Lilly), and human plasma-derived sex hormone-binding globulin (SHBG) (manufactured by Scipac) were respectively immobilized on flow cells of a CM5 sensor chip (manufactured by Biacore). An immobilized amount of the ligand protein on the respective flow cells was set to the range of 2000 to 3000 RU. Activated protein C and sex hormone-binding globulin are known as plasma glycoproteins having relatively high homology to Protein S, among the human proteins. Then, a recombinant human RAGE-Fc fusion protein (manufactured by R&D Systems) diluted to given concentrations (50000, 25000, 12500, 6250, 3125, and 1562 ng/mL) using HBS-EP+buffer (manufactured by Biacore), as an analyte, was allowed to run and bind to the ligand-immobilized flow cells at a temperature of 25° C., a flow rate of 5 μL/min, association time of 140 seconds, and dissociation time of 240 seconds. The chip was regenerated by a flow of an aqueous glycine solution (pH 1.5) (manufactured by Biacore) for 60 seconds.

[2] = target: T2, MSPS, purified recombinant human Protein S obtained from FUT8 knockout CHO/DG44 cells (human, UniProt P07225 42-676, gamma-carboxylated glutamic acid (Gla) in the Gla domain; complex type N-glycoside-linked sugar chains without fucose (fucose not detected)); assay: SPR (Biacore T100), kinetic analysis, MSPS immobilised on CM5, RAGE-Fc as analyte
T2 construct: It differs from KCPS only in glycosylation (no core fucose); also called fucose-free recombinant Protein S
T2 sequence: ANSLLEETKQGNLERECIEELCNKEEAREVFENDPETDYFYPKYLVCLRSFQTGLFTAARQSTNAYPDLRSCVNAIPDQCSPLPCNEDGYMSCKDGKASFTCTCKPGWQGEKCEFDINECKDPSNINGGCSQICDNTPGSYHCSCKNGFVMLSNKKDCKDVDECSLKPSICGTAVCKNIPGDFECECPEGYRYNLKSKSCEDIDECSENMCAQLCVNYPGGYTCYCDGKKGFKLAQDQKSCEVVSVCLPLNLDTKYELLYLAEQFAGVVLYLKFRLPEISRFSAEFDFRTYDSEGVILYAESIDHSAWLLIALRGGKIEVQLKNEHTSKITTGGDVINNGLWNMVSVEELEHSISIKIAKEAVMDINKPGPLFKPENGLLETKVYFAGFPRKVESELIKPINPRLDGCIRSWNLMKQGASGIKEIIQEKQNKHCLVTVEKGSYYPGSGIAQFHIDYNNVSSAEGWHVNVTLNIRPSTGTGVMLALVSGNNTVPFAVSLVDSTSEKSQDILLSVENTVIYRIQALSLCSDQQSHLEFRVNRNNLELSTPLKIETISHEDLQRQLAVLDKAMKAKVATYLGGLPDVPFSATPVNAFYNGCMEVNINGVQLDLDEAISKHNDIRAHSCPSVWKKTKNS
From the text: (§2) Using an amine coupling kit (manufactured by Biacore), human plasma-derived Protein S (manufactured by Calbiochem), and recombinant human Protein S prepared in Example 4, MSPS and KCPS were respectively immobilized on flow cells of a CM5 sensor chip (manufactured by Biacore). An immobilized amount of the ligand protein on the respective flow cells was set to the range of 1500 to 2000 RU. Then, an anti-human Protein S antibody C-17 (manufactured by Santa Cruz) (FIG. 7), or a human plasma-derived complement C4 binding protein (manufactured by BioMed) diluted to given concentrations (50000, 25000, 12500, 6250, 3125, and 1562 ng/mL) using HBS-EP+buffer (manufactured by Biacore), as an analyte, was allowed to run and bind to the ligand-immobilized flow cells at a temperature of 25° C., a flow rate of 5 μL/min, association time of 140 seconds, and dissociation time of 240 seconds. The anti-human Protein S antibody C-17 and the human plasma-derived complement C4 binding protein are known to bind to the sex hormone-binding globulin-like domain (SHBG domain) at the carboxyl terminal of Protein S. The chip was regenerated by a flow of an aqueous glycine solution (pH 1.5) (manufactured by Biacore) for 60 seconds. Dissociation constants calculated by analysis of the obtained data using Biacore T100 evaluation software ver 1.1 (manufactured by Biacore) are given in Table 2 below.
(§3) Then, a recombinant human RAGE-Fc fusion protein (manufactured by R&D Systems) diluted to given concentrations (50000, 25000, 12500, 6250, 3125, and 1562 ng/mL) using HBS-EP+buffer (manufactured by Biacore), as an analyte, was allowed to run and bind to the ligand-immobilized flow cells at a temperature of 25° C., a flow rate of 5 μL/min, association time of 140 seconds, and dissociation time of 240 seconds (FIG. 8). The chip was regenerated by a flow of an aqueous glycine solution (pH 1.5) (manufactured by Biacore) for 60 seconds.

[3] = target: recombinant human Mac-1 heterodimer (alpha m beta 2 integrin, CD11b/CD18; manufactured by R&D Systems) (human, UniProt P11215; P05107); assay: SPR (Biacore), Mac-1 immobilised on C1 chip, RAGE-Fc (50000, 5000, 500 ng/mL) as analyte
From the text: Using an amine coupling kit (manufactured by Biacore), human plasma-derived Protein S (manufactured by Calbiochem), human plasma-derived complement C4 binding protein (C4BP; manufactured by BioMed), and human plasma-derived complement C1 inhibitor Berinert P (manufactured by CSL Behring) were respectively immobilized on flow cells of a CM5 sensor chip (manufactured by Biacore). An immobilized amount of the ligand protein on the respective flow cells was set to the range of 2400 to 3600 resonance units (hereinafter referred to as “RU”). The complement C4 binding protein and the complement C1 inhibitor are known as plasma glycoproteins having the anti-inflammatory effect. Then, a recombinant human RAGE-Fc fusion protein (manufactured by R&D Systems) diluted to given concentrations (50000, 25000, 12500, 6250, 3125, and 1562 ng/mL) using HBS-EP+buffer (manufactured by Biacore), as an analyte, was allowed to run and bind to the ligand-immobilized flow cells at a temperature of 25° C., a flow rate of 5 μL/min, association time of 140 seconds, and dissociation time of 240 seconds. The chip was regenerated by a flow of an aqueous glycine solution (pH 1.5) (manufactured by Biacore) for 60 seconds. […]

[4] = target: T3, human plasma-derived sex hormone-binding globulin (SHBG) (manufactured by Scipac) (human, UniProt P04278 30-402); assay: SPR (Biacore T100), human plasma-derived SHBG immobilised on CM5 chip, RAGE-Fc as analyte
T3 construct: mature; Bought plasma protein
T3 sequence (looked up): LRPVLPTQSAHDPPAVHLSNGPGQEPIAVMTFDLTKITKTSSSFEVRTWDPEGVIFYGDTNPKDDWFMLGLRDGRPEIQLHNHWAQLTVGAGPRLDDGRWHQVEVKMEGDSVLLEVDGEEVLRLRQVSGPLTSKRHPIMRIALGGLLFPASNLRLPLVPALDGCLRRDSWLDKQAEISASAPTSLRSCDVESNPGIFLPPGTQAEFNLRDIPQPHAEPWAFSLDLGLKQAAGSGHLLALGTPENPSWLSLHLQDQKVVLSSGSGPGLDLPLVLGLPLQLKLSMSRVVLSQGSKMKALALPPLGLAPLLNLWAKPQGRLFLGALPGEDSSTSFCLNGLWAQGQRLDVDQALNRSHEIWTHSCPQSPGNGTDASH
Experimental: The abscissa represents time (seconds), and the ordinate represents a binding activity of RAGE to SHBG on a sensor chip of Biacore T100. From the top, the sensorgram represents a value obtained at the time when RAGE was allowed to run at concentrations of 50000, 25000, 12500, 6250, 3125 and 0 ng/mL.
as §1, with “The chip was regenerated by a flow of an aqueous glycine solution (pH 1.5) (manufactured by Biacore) for 60 seconds.” left out

[5] = target: T4, human plasma-derived complement C1 inhibitor Berinert P (manufactured by CSL Behring) (human, UniProt P05155 23-500); assay: SPR (Biacore), C1 inhibitor immobilised on CM5, RAGE-Fc as analyte
T4 construct: mature; Bought plasma protein
T4 sequence (looked up): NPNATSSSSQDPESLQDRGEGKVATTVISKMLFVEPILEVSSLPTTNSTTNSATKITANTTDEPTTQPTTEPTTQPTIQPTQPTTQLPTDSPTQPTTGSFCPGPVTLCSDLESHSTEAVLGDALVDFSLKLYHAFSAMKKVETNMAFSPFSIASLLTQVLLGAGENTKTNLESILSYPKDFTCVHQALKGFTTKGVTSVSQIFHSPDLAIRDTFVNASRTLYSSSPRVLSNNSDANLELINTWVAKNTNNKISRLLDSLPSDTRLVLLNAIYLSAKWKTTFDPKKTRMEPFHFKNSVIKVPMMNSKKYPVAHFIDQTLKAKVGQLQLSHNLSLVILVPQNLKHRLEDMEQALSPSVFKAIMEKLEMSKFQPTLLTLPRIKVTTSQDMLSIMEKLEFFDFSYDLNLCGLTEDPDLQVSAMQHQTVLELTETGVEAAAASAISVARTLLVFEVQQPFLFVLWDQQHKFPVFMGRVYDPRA
From the text: (§4) Using an amine coupling kit (manufactured by Biacore), human plasma-derived Protein S (manufactured by Calbiochem), human plasma-derived complement C4 binding protein (C4BP; manufactured by BioMed), and human plasma-derived complement C1 inhibitor Berinert P (manufactured by CSL Behring) were respectively immobilized on flow cells of a CM5 sensor chip (manufactured by Biacore). An immobilized amount of the ligand protein on the respective flow cells was set to the range of 2400 to 3600 resonance units (hereinafter referred to as “RU”). The complement C4 binding protein and the complement C1 inhibitor are known as plasma glycoproteins having the anti-inflammatory effect. Then, a recombinant human RAGE-Fc fusion protein (manufactured by R&D Systems) diluted to given concentrations (50000, 25000, 12500, 6250, 3125, and 1562 ng/mL) using HBS-EP+buffer (manufactured by Biacore), as an analyte, was allowed to run and bind to the ligand-immobilized flow cells at a temperature of 25° C., a flow rate of 5 μL/min, association time of 140 seconds, and dissociation time of 240 seconds. The chip was regenerated by a flow of an aqueous glycine solution (pH 1.5) (manufactured by Biacore) for 60 seconds.

[6] = target: T5, human plasma-derived Protein S (manufactured by Calbiochem) (human, UniProt P07225 42-676, gamma-carboxylated glutamic acid (Gla) in the N-terminal Gla domain; complex type N-glycoside-linked sugar chains (Asn458, Asn468, Asn489), partly with core alpha1,6-fucose (Fuc 0.26 per Man 3.00)); assay: SPR (Biacore T100), kinetic analysis, Protein S immobilised on CM5, RAGE-Fc as analyte
T5 construct: Bought protein purified from human plasma; also called native Protein S; Human plasma Protein S
T5 sequence: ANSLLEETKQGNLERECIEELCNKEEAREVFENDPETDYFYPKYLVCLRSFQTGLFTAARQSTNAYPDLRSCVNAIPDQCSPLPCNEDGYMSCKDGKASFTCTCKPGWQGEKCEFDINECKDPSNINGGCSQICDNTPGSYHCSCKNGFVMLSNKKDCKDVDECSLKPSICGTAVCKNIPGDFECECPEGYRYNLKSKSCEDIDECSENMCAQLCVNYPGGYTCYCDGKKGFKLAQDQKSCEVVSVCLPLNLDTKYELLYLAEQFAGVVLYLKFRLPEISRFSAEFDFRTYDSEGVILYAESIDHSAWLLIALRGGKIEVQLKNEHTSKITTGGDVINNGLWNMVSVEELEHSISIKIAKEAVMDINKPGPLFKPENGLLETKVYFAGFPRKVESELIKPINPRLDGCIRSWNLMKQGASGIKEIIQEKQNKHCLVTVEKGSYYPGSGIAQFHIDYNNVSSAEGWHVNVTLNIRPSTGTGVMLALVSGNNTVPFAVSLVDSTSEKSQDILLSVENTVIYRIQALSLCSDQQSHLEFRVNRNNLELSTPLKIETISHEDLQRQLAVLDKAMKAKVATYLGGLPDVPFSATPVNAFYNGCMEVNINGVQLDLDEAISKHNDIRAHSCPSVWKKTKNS
From the text: as §2, §3

[7] = target: T6, human plasma-derived complement C4 binding protein (C4BP; manufactured by BioMed) (human, UniProt P04003 49-597; P20851 18-252); assay: SPR (Biacore), C4BP immobilised on CM5, RAGE-Fc as analyte
T6 construct: mature; Bought plasma protein; also called Human C4BP
T6 sequence (looked up) 1: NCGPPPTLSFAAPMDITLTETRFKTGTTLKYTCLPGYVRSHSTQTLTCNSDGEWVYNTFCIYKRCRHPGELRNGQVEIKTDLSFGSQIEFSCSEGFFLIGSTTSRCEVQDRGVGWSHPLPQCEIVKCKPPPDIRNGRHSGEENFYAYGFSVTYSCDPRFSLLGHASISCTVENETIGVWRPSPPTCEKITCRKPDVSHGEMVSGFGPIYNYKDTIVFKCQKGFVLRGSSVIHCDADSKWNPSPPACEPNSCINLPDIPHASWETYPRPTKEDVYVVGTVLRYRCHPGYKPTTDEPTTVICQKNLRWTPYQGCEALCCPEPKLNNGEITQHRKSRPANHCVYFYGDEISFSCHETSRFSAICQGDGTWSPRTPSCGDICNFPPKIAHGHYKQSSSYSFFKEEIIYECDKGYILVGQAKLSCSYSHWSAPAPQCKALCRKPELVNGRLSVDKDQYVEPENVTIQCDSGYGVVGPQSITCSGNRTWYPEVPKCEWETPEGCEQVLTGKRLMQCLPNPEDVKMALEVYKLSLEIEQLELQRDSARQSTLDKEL
T6 sequence (looked up) 2: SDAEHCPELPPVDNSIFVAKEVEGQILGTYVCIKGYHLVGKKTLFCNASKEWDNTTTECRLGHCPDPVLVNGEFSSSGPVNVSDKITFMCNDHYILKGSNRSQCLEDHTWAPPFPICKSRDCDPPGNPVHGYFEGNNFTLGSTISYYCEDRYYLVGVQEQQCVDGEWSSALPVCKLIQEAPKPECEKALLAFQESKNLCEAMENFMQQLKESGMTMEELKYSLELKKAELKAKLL
From the text: as §4

T1 sequence (P04070 43-197, chain 1 of 2): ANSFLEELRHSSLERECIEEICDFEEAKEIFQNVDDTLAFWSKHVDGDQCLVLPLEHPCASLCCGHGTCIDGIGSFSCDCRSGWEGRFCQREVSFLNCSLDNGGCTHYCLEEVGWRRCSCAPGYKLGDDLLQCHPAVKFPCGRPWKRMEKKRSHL
T1 sequence (P04070 212-461, chain 2 of 2): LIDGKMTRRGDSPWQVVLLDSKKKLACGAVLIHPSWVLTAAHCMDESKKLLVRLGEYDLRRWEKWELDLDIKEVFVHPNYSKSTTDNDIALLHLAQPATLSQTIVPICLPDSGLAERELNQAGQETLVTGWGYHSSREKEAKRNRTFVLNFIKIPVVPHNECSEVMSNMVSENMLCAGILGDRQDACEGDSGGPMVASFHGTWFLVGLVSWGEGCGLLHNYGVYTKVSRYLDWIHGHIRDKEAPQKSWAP

B1: recombinant human RAGE-Fc fusion protein (manufactured by R&D Systems) (Fc fusion)
chain: not shown
notes: Bought fusion protein; also called recombinant soluble RAGE-human IgG1 Fc chimeric protein; not shown: Fc of human IgG1
Q: Does B1 bind [1]?
A: no binding (tested: up to 50000 ng/mL RAGE-Fc)

Q: What about the Kd [2] of the same binder?
A: 7.5 nM

Q: What about the koff [2] of the same binder?
A: 0.04 s⁻¹

Q: What about the kon [2] of the same binder?
A: 5.1e+06 M⁻¹ s⁻¹

Q: Does B1 bind [3]?
A: binds

Q: Does B1 bind [4]?
A: no binding (tested: 50000 ng/mL)

Q: Does B1 bind [5]?
A: no binding (tested: up to 50000 ng/mL RAGE-Fc)

Q: And the Kd [6]?
A: 49 nM

Q: What about the koff [6] of the same binder?
A: 0.008 s⁻¹

Q: And the kon [6]?
A: 160000 M⁻¹ s⁻¹

Q: Does B1 bind [7]?
A: no binding (tested: up to 50000 ng/mL RAGE-Fc)
